Measured values taken from the supplement of paper PMC6135742.
Where a name gives a salt, the structure may show the parent alone. Over roughly 2,600 compounds, “MBP+ mature oligodendrocyte number relative to DMSO vehicle control” has its median near -0.34; the highest 2% begin near 13. This is one part of the list.

What follows are molecules tested on jimpy (Plp1 jimpy) mouse iPSC-derived oligodendrocyte progenitor cells (assay: MBP+ mature oligodendrocyte number relative to DMSO vehicle control (SDs above negative control mean); higher = more surviving jimpy oligodendrocytes (rescue)). Settings: 10 µM; 3 days.
Experimental: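 Primary phenotypic screen of >3,000 bioactive compounds (Selleck L1700 and Sigma LO1280 libraries) at a single dose of 10 µM. Compounds were added to jimpy (Plp1 mutant) mouse iPSC-derived OPCs at the start of thyroid hormone-induced oligodendrocyte differentiation, one well per compound in 384-well plates. After 3 days cells were stained for MBP, Sox10 and DAPI and imaged with an Operetta system. MBP+ oligodendrocyte number and total cell number were expressed as the number of SDs above the mean of the DMSO negative control on the same plate (n=16 control wells per plate). Hits were defined as >=4 SD for oligodendrocytes and >=2 SD for total cells.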

SMILES	MBP+ mature oligodendrocyte number
CC(=O)Nc1ccc(Cc2ccc(NC(C)=O)cc2)cc1	2.55
C[N+](C)(C)CC#CCOC(=O)Nc1cccc(Cl)c1	-0.629
C[C@H]1CCC/C=C/[C@@H]2C[C@H](O)C[C@H]2[C@H](O)/C=C/C(=O)O1 [Brefeldin A]	< -6.35
Cc1ncc(CNC(=O)N(CCCl)N=O)c(N)n1 [Nimustine hydrochloride]	-1.77
COc1ccc2[nH]cc(CCN)c2c1 [O-Methylserotonin hydrochloride]	-1.93
CC[C@@]1(O)C(=O)OCc2c1cc1n(c2=O)Cc2cc3ccccc3nc2-1 [Camptothecin]	< -6.7
CC[C@@]1(O)C(=O)OCc2c1cc1n(c2=O)Cc2cc3ccccc3nc2-1 [(S)-(+)-Camptothecin]	< -4.47
C#C[C@]1(O)CC[C@H]2[C@@H]3CCC4=Cc5nc6nc7ccccc7n6cc5C[C@]4(C)[C@H]3CC[C@@]21C	-1.21
CCNC(=O)C[C@@H]1N=C(c2ccc(Cl)cc2)c2cc(OC)ccc2-n2c(C)nnc21	-6.27
CN1c2ccccc2C(NCCCCCCC(=O)O)c2ccc(Cl)cc2S1(=O)=O (stereo unspecified) [Tianeptine sodium]	2.2
NC(CCP(=O)(O)O)C(=O)O (racemic) [(±)-2-Amino-4-phosphonobutyric acid]	-0.236
CC1C2Cc3ccc(O)cc3C1(C)CCN2CC1CC1 (single isomer, unassigned; (+)) [(+)-Cyclazocine]	0.398
CN1C[C@H](C(=O)N[C@]2(C)O[C@@]3(O)[C@@H]4CCCN4C(=O)[C@H](Cc4ccccc4)N3C2=O)C[C@@H]2c3cccc4[nH]cc(c34)C[C@H]21 [Dihydroergotamine methanesulfonate]	-1.8
C[N+]1(C)[C@@H]2CC[C@H]1C[C@@H](OC(=O)C(CO)c1ccccc1)C2 (stereo partly specified) [Atropine methyl nitrate]	-0.158
C[N+]1(C)[C@@H]2CC[C@H]1C[C@@H](OC(=O)C(CO)c1ccccc1)C2 (stereo partly specified) [Atropine methyl bromide]	-0.983
C[N+](C)(C)CCCCCCCCCC[N+](C)(C)C [Decamethonium Bromide]	3.28
C[N+](C)(C)CCCCCCCCCC[N+](C)(C)C [Decamethonium dibromide]	0.921
N=C(N)c1ccc(CS(=O)(=O)F)cc1 [4-Amidinophenylmethanesulfonyl fluoride hydrochloride]	-0.951
O=C(O)CNC(=O)c1c(O)c2ccccc2n(Cc2ccccc2)c1=O	2.41
CC(CCc1ccccc1)NC(C)C(O)c1ccc(O)cc1 (stereo unspecified) [Nylidrin hydrochloride]	0.539
NNC(=O)c1ccc(O)cc1 [4-Hydroxybenzhydrazide]	-0.805

SMILES	MBP+ mature oligodendrocyte number
C[C@]12CC[C@H]3[C@@H](CC[C@@]45O[C@@H]4C(O)=C(C#N)C[C@]35C)[C@@H]1CC[C@@H]2O [Trilostane]	0.109
CNCCc1c[nH]c2ccc(O)cc12 [N-omega-Methyl-5-hydroxytryptamine oxalate salt]	-0.323
NCCCP(=O)(O)O [3-Aminopropylphosphonic acid]	-0.825
COc1ccc(Cc2nccc3cc(OC)c(OC)cc23)cc1OC [Papaverine hydrochloride]	10.5
CNCC(=O)c1ccc(O)c(O)c1 [Adrenalone HCl]	4.47
O=C[C@H](Cl)[C@@H](O)[C@H](O)[C@H](O)CO [2-Chloro-2-deoxy-D-glucose]	-0.387
NNC(N)=O [Semicarbazide hydrochloride]	0.539
CC(C)N(CCNC(=O)CN1CCCC1=O)C(C)C [Pramiracetam]	-0.556
C=C(C)[C@H]1Cc2c(ccc3c2O[C@@H]2COc4cc(OC)c(OC)cc4[C@@H]2C3=O)O1 [Rotenone]	< -3.85
COC(=O)C1=CCCN(C)C1 [Arecoline hydrobromide]	0.706
COC(=O)C1=CCCN(C)C1 [Arecoline]	2.8
Fc1ccc(C(OCCN2CCN(CCCc3ccccc3)CC2)c2ccc(F)cc2)cc1	< -4.47
CC(=O)Nc1ccc(OC[C@](C)(O)C(=O)Nc2ccc([N+](=O)[O-])c(C(F)(F)F)c2)cc1 [Andarine]	2.12
CC(N)Cc1c[nH]c2ccc(O)cc12 (stereo not drawn) [alpha-Methyl-5-hydroxytryptamine maleate]	-0.284
C[C@](O)(COc1ccc(C#N)cc1)C(=O)Nc1ccc(C#N)c(C(F)(F)F)c1	3.69
CCCN(CCC)C1CCc2ccc(O)cc2C1 (stereo not drawn) [R-(+)-7-Hydroxy-DPAT hydrobromide]	-0.125
c1ccc(C2(c3ccccc3)CC2C2=NCCN2)cc1 (stereo unspecified) [Cibenzoline succinate]	-1.7
CN1CCC[C@@H]1Cc1c[nH]c2ccc(Nc3ncccc3[N+](=O)[O-])cc12	-2.28
O=C1CCCN1CC#CCN1CCCC1 [Oxotremorine sesquifumarate salt]	-0.637
C[C@]12N[C@H](Cc3ccccc31)c1ccccc12 [MK-801 (Dizocilpine)]	-2.12
